Measured values from publication PMC6212790.
This is one part of the list. At the low end of the ranking, values are background and their order means little.

molecular target: T1, GST-Rok-C97-191 (UniProt O34857); assay: protein binding microarray; conditions: Rok is a gene silencer of Bacillus subtilis; high values mean tight binding; most listed sequences are background and not binding sites; double strand, one strand shown;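 note: rank score from −0.5 (least bound) to 0.5 (best bound)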
T1 sequence: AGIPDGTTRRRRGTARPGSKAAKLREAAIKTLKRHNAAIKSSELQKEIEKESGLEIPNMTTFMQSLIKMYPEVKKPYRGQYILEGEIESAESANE

Sequence | binding signal
GGCCAAAA | -0.264 E-score
CATAGTAC | 0.266 E-score
CGACGTGA | 0.105 E-score
ACAGTGCA | -0.0746 E-score
CCCGATCA | -0.0678 E-score
ATCTGAGC | -0.0162 E-score
CCGACATC | -0.283 E-score
ATAAATCC | 0.0577 E-score
CTCGGCGA | -0.213 E-score
CGTCACGA | -0.124 E-score
ATCGTCTG | -0.0463 E-score
ATACTCGG | 0.0546 E-score
CATCCGTC | -0.224 E-score
CAAATCAA | -0.0279 E-score
ATCGGGAA | 0.0603 E-score
ATTACCCC | -0.0257 E-score
CACCGGCG | -0.25 E-score
ATTTGGAA | 0.102 E-score
CTCTGCCA | -0.3 E-score
ATTTCCAG | 0.191 E-score
GGCACAAA | -0.222 E-score
AGACCAGC | -0.0921 E-score
CAGCGAGG | -0.246 E-score
TCGTTTAA | 0.00225 E-score
CATGCTGA | -0.19 E-score

Sequence | binding signal
ACACGAAT | 0.0134 E-score
CTCACGTA | 0.0177 E-score
AGGACTTC | 0.00999 E-score
CACTCAGG | -0.236 E-score
AATCTGTC | -0.00599 E-score
CAAATTTC | 0.0612 E-score
ATGCAATC | 0.192 E-score
GAATTTGA | 0.074 E-score
AACTAGCC | 0.107 E-score
ACTAGTCT | 0.215 E-score
CCCTACAC | -0.0926 E-score
CGTCTATA | 0.0552 E-score
ACGGATAA | 0.0199 E-score
ACTCCCGA | 0.0763 E-score
ACGCCGAC | -0.229 E-score
AAGTATTC | 0.138 E-score
ACACGCTA | 0.197 E-score
AGCCTACT | 0.0687 E-score
AACTGAGT | 0.101 E-score
ACCATTGC | 0.0262 E-score
CTAGGACC | -0.133 E-score
AAGCCTGT | -0.153 E-score
GGGCGCTA | -0.121 E-score
GCCGCATA | -0.121 E-score
GGAACACC | -0.346 E-score

Sequence | binding signal
CTGCTACC | -0.0872 E-score
ATTGGGCG | -0.0948 E-score
ATGATAGC | 0.15 E-score
AAAAATGA | 0.0202 E-score
AGATTGAC | 0.0153 E-score
AACTCGGC | 0.127 E-score
CAGGTGGG | -0.339 E-score
ATTTTATA | 0.385 E-score
AAGCTAGA | 0.231 E-score
ACAGTCGA | 0.0501 E-score
AGTAGCCG | -0.00732 E-score
ATGGGTAA | 0.142 E-score
CCAGTCGC | -0.105 E-score
GGGTCCGA | -0.227 E-score
ATGGGACG | -0.108 E-score
ACATAGAT | 0.33 E-score
AGACTCAC | -0.132 E-score
ACGTCCAA | -0.0558 E-score
AAGGTGCT | 0.009 E-score
ATGAAAAT | 0.167 E-score
TGGGAACA | 0.0153 E-score
ATTGTTAG | 0.193 E-score
CAATCCGA | 0.0261 E-score
AATTGTGG | 0.088 E-score
CCGCAAGA | -0.109 E-score

Sequence | binding signal
ATCATCAG | -0.142 E-score
CTGCACGC | -0.0707 E-score
AATCTAAC | 0.199 E-score
CACCTCGG | -0.233 E-score
AAAATTTA | 0.282 E-score
AAACCTAC | 0.227 E-score
ATCGTTTG | -0.0549 E-score
CATAAGCC | -0.142 E-score
CTGTCCGA | 0.0343 E-score
AAGCTGAT | -0.0275 E-score
TAGGTGGA | -0.0951 E-score
GTAGCCCA | -0.291 E-score
CCAGACGA | -0.0847 E-score
ATGCTCTC | -0.0084 E-score
CACGAGTG | -0.0068 E-score
ACTAAGGC | -0.0444 E-score
TGACCTCA | -0.014 E-score
AAGGGCAT | 0.0288 E-score
CGCGGGTC | -0.341 E-score
TGGGGACA | -0.181 E-score
CAGGGTCG | -0.239 E-score
ACGTGGAC | -0.17 E-score
CGTGTTAA | 0.0907 E-score
CGATCCAG | -0.0429 E-score
ATCCGAGC | -0.15 E-score

Sequence | binding signal
CAAGGTGC | -0.283 E-score
ACCCCCAG | -0.214 E-score
CGATTCCG | 0.0559 E-score
TAGATCCA | 0.112 E-score
AGTTTGTG | 0.23 E-score
CATAAAAC | 0.214 E-score
AGGTGCGA | -0.165 E-score
CATTACAA | 0.0699 E-score
GACTTAGA | -0.0858 E-score
GCCTAGAA | 0.124 E-score
AAGGGGGA | -0.218 E-score
ATTTCGAG | 0.0977 E-score
CATAAAAA | 0.178 E-score
CCAACGAA | -0.0756 E-score
AAGTCCAG | 0.0873 E-score
AGGCGCTC | -0.35 E-score
ATATTTAG | 0.201 E-score
AACGGGAT | 0.106 E-score
GACCTTGA | -0.112 E-score
AGAGTTAG | 0.137 E-score
TATGAGGA | 0.0253 E-score
CGTGTGGA | -0.0534 E-score
AATGAAGT | 0.106 E-score
CGACTCTC | -0.174 E-score
ATTTCGCC | -0.0121 E-score

Sequence | binding signal
GATTCGCC | -0.261 E-score
CTAAACAC | 0.00902 E-score
ACAACGGG | -0.136 E-score
CACAATGC | -0.0369 E-score
TACAGCCA | -0.2 E-score
ATTATAGC | 0.189 E-score
GTCCAAGA | -0.0166 E-score
CGACATTA | 0.0731 E-score
AAAGTCCA | -0.0237 E-score
GTGTCAAC | -0.214 E-score
AGGGGACG | -0.274 E-score
CCTCATAG | -0.0799 E-score
ATGGGTCA | -0.0833 E-score
AGTAGGGA | 0.0797 E-score
CAAGCAGA | 0.0345 E-score
CTCACAAC | 0.143 E-score
CCTCGCAG | -0.24 E-score
AATAGCTC | 0.179 E-score
CAGATAGC | 0.0948 E-score
AATCGTTG | -0.0522 E-score
CCTGAAGG | -0.247 E-score
CCGTCGCC | -0.323 E-score
GGAACAGA | -0.167 E-score
CCACTATC | 0.0612 E-score
CCGTCCAG | -0.2 E-score

Sequence | binding signal
TGGAATAA | 0.171 E-score
CTTAGTGA | -0.0497 E-score
CAAAGCGG | -0.0606 E-score
ACTTAACT | 0.219 E-score
CCCTCCCG | -0.221 E-score
CAGGACAA | -0.0587 E-score
AAGCCATA | 0.0114 E-score
ACGGCATA | -0.0674 E-score
GTTAATAA | 0.309 E-score
ACTTACGC | 0.00924 E-score
CTGTATGC | -0.0958 E-score
AGTGAGTC | -0.043 E-score
AACTACCG | 0.41 E-score
CTCTTATC | 0.0165 E-score
ACCAAACC | 0.0692 E-score
AGACCTCT | -0.134 E-score
ATAGGAAA | 0.17 E-score
AGCCGAAA | 0.191 E-score
CGGTTGTA | 0.292 E-score
CACTTCGA | -0.12 E-score
CTAACGGA | -0.00053 E-score
CTTCAGCA | -0.0401 E-score
